Test results as given in the supplement of paper PMC7580552.
Structures can show the parent of a compound that is named as a salt. ± gives the standard deviation of the averaged measurements. Some of the results follow. Many values rest on one well or one pass, so single values are uncertain.

The molecules below were run on Escherichia coli W3110 (assay: planktonic growth (OD600) relative to untreated control; higher = more growth). Details: 10 µM; 20-24 h; 30 °C; TB.
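Note: stationary (unshaken) cultures in 96-well plates, started at OD600 0.05 from mid-exponential cells, with compounds supplied from DMSO stocks.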

Row | Structure (SMILES) | planktonic growth [%]
1 | C=C(C)[C@@H]1[C@H]2OC(=O)[C@@H]1[C@]1(O)C[C@H]3O[C@]34C(=O)O[C@H]2[C@]14C [Picrotoxinin] | 98
2 | Cc1cccc(C)c1NC1=NCCCS1 [Xylazine] | 95
3 | NC(=O)C[S+]([O-])C(c1ccccc1)c1ccccc1 (stereo not drawn) [Modafinil] | 97
4 | CN1CCN(C(=O)OC2c3nccnc3C(=O)N2c2ccc(Cl)cn2)CC1 (stereo not drawn) [Zopiclone] | 93
5 | Clc1ccc(C(OCCN2CCCCC2)c2ccccc2)cc1 (stereo not drawn) [Cloperastine hydrochloride] | 96
6 | C[C@]12CC[C@H](O)C[C@H]1CC[C@@H]1[C@@H]2C[C@@H](O)[C@]2(C)[C@@H](C3=CC(=O)OC3)CC[C@]12O [Digoxigenin] | 101 ± 2.8
7 | CC(Cc1ccccc1)NCCC(c1ccccc1)c1ccccc1 (stereo not drawn) [Prenylamine lactate] | 104
8 | CC(=O)NC1CCSC1=O (racemic) [N-Acetyl-DL-homocysteine Thiolactone] | 107
9 | C[C@]12CC[C@@H](O)C[C@H]1CC[C@@H]1[C@@H]2CC[C@]2(C)C(=O)CC[C@@H]12 [3-alpha-Hydroxy-5-beta-androstan-17-one] | 94
10 | C#CCN(C)[C@H](C)Cc1ccccc1 [Selegiline hydrochloride] | 100
11 | CN(C)C(=O)Oc1ccc[n+](C)c1 [Pyridostigmine iodide] | 106
12 | O=c1[nH]c2ccccc2n1C1CCN(CCCC(c2ccc(F)cc2)c2ccc(F)cc2)CC1 [Pimozide] | 103
13 | NCCCNCCSP(=O)(O)O [Amifostine] | 72
14 | CC1OC(OC2/C=C/C=C/C=C/C=C/CC/C=C/C=C/[C@H](C)[C@@H](O)[C@@H](C)[C@H](C)OC(=O)CC(O)CC(O)CC(O)CCC(O)C(O)C[C@]3(O)CC(O)C(C(=O)O)C(C2)O3)C(O)C(N)C1O (stereo partly drawn) [Nystatine] | 101
15 | CNC(C)(C)Cc1ccccc1 [Mephentermine hemisulfate] | 102
16 | C[C@]12CCC(=O)C(O)=C1CC[C@@H]1[C@@H]2CC[C@]2(C)C(=O)CC[C@@H]12 [Formestane] | 94
17 | CC(C)C[C@H]1C(=O)N2CCC[C@H]2[C@]2(O)O[C@](NC(=O)[C@@H]3C=C4c5cccc6[nH]c(Br)c(c56)C[C@H]4N(C)C3)(C(C)C)C(=O)N12 [Bromocryptine mesylate] | 79
18 | CCNCC(O)c1cccc(O)c1 (stereo not drawn) [Etilefrine hydrochloride] | 86
19 | CC(C)(N)Cc1ccccc1 [Phentermine hydrochloride] | 89
20 | CNC(=O)Oc1ccc2c(c1)[C@]1(C)CCN(C)[C@@H]1N2C [Eserine hemisulfate salt] | 102
21 | CN(C)C(=O)Oc1cccc([N+](C)(C)C)c1 [Neostigmine bromide] | 97
22 | COc1ccc(C(CN(C)C)C2(O)CCCCC2)cc1 (stereo not drawn) [Venlafaxine] | 96
23 | CC(=O)[C@H]1CC[C@H]2[C@@H]3CC[C@H]4C[C@H](O)CC[C@]4(C)[C@H]3C(=O)C[C@]12C [Alfaxalone] | 101
24 | C=C1C[C@@H]2[C@H](CC[C@]3(C)C(=O)CC[C@@H]23)[C@@]2(C)C=CC(=O)C=C12 [Exemestane] | 102

Row | Structure (SMILES) | planktonic growth [%]
25 | C[C@]12C/C(=C/O)C(=O)C[C@@H]1CC[C@@H]1[C@@H]2CC[C@@]2(C)[C@H]1CC[C@]2(C)O [Oxymetholone] | 98
26 | COC[C@@H](NC(C)=O)C(=O)NCc1ccccc1 [Lacosamide] | 92
27 | C[C@]12COC(=O)C[C@@H]1CC[C@@H]1[C@@H]2CC[C@@]2(C)[C@H]1CC[C@]2(C)O [Oxandrolone] | 93
28 | CN1C(=O)CCS(=O)(=O)C1c1ccc(Cl)cc1 (stereo not drawn) [Chlormezanone] | 89
29 | COc1ccc(OC)c(C(O)C(C)N)c1 (stereo not drawn) [Methoxamine hydrochloride] | 85
30 | CCC(=O)O[C@H]1CC[C@H]2[C@@H]3CCC4=CC(=O)CC[C@]4(C)[C@H]3CC[C@]12C [Testosterone propionate] | 109
31 | C[C@@H]1CN([C@H]2CC[C@](C#N)(c3ccc(F)cc3)CC2)CC[C@]1(C(=O)O)c1ccccc1 [Levocabastine hydrochloride] | 100
32 | C=CCC1(CC(C)C)C(=O)NC(=O)NC1=O [Butalbital] | 100
33 | O=C(CCCN1CCC(n2c(=O)[nH]c3ccccc32)CC1)c1ccc(F)cc1 [Benperidol] | 105
34 | OC(c1ccccc1)(c1ccccc1)C1CCNCC1 [Azacyclonol] | 96
35 | NC(=O)OCCCc1ccccc1 [Phenprobamate] | 97
36 | C[N+]1(C)CCCC(OC(=O)C(O)(c2ccccc2)c2ccccc2)C1 (stereo not drawn) [Mepenzolate bromide] | 99
37 | CCCC(C)(COC(N)=O)COC(=O)NC(C)C (stereo not drawn) [Carisoprodol] | 98
38 | CC(O)(CS(=O)(=O)c1ccc(F)cc1)C(=O)Nc1ccc(C#N)c(C(F)(F)F)c1 (stereo not drawn) [Bicalutamide] | 98
39 | CCOC(=O)c1cncn1[C@H](C)c1ccccc1 [Etomidate] | 110
40 | NCC1(CC(=O)O)CCCCC1 [Gabapentin] | 97
41 | CC(N)C(O)c1ccccc1 (stereo not drawn) [Phenylpropanolamine hydrochloride] | 97
42 | O=C(CCCN1CCC2(CC1)C(=O)NCN2c1ccccc1)c1ccc(F)cc1 [Spiperone] | 106
43 | C=C1CC[C@@]2(O)[C@H]3Cc4ccc(O)c5c4[C@@]2(CCN3CC2CC2)[C@H]1O5 [Nalmefene hydrochloride] | 96
44 | O=[N+]([O-])O[C@H]1CO[C@H]2[C@@H]1OC[C@H]2O[N+](=O)[O-] [Isosorbide dinitrate] | 106
45 | O=c1[nH]oc2c1CCNC2 [THIP Hydrochloride] | 102
46 | CC[C@@H](CO)NC(=O)[C@@H]1C=C2c3cccc4[nH]cc(c34)C[C@H]2N(C)C1 [Methylergometrine maleate] | 90
47 | Cc1cc(C(C#N)c2ccc(Cl)cc2)c(Cl)cc1NC(=O)c1cc(I)cc(I)c1O (stereo not drawn) [Closantel] | 95
48 | C[C@@H]1C[C@@H]([C@H](O)CC2CC(=O)NC(=O)C2)C(=O)[C@@H](C)C1 [Cycloheximide] | 93
